Experimental data: PubChem BioAssay AID463173 (ICCB-Longwood Screening Facility, Harvard Medical School, 2010)
The whole screen tested about 52,000 compounds, of which about 4,300 (8.3%) were called active. Cut-off read from the data, not from the text of the source: active = survival mostly below about 52% (no sharp cut-off); inactive = mostly above about 56%. The list shows a part of the results.

system: DeltatarO mutant; experiment: growth inhibition of S. aureus wild type versus tarO mutant, primary screen, teichoic acid synthesis inhibitors, RN4220, OD600 (AID 463173); conditions: OD600, 18 h, stronger effect = lower value, screened at 18.75 µg/mL (by protocol)

Q: How did the survival turn out when `CCOc1cc(C2CC(=O)Nc3nc(SCc4ccccc4)[nH]c(=O)c32)ccc1O` (configuration not stated) was run?
A: inactive: 105%

Q: `CCc1ccc2oc(-c3ccc(NC(=O)c4cc(OC)c(OC)c(OC)c4)cc3)nc2c1` was tested. Which survival did it give?
A: inactive: 57%

Q: Which survival does the source give for `CCOC(=O)c1ccc(N2C(=O)c3[nH]nc(-c4ccc(OCC)cc4)c3C2c2ccc(OC)cc2OC)cc1` (configuration not stated) here?
A: inactive: 106%

Q: For `CCc1ccc(CNC(=O)CCCN2C(=O)c3cccnc3Oc3ccc(Cl)cc32)cc1`, which survival is on record?
A: inactive: 94%

Q: For `Cc1ccccc1-c1nnc(C2CCN(S(=O)(=O)c3ccc(Cl)cc3)CC2)o1`, which survival is on record?
A: inactive: 89%

Q: How did the survival turn out when `COc1ccc(CNC(=O)c2cc3c(=O)n(C)c4ccccc4c3n2C)cc1` was run?
A: inactive: 89%

Q: Which survival does the source give for `Cn1cnc(S(=O)(=O)N2CCC(C(=O)NCc3ccc(Cl)cc3)CC2)c1` here?
A: inactive: 101%

Q: For `O=C(Cc1ccccc1)N(Cc1cccnc1)c1nc2ccc(F)cc2s1`, which survival is on record?
A: inactive: 86%

Q: How did the survival turn out when `N=c1nc(N)nc2n1NC(c1ccc(F)cc1)=CS2` was run?
A: inactive: 87%

Q: With `COC(=O)C(C)Sc1nnc2cc(C)c3cc(C)cc(C)c3n12` (configuration not stated) as the molecule, how does the survival read?
A: inactive: 100%

Q: With `COc1cc(-c2cc(OC)c3c(C)oc(C)c3c(=O)c2)ccc1OC(=O)c1ccccc1C` as the molecule, how does the survival read?
A: inactive: 86%

Q: Which survival does the source give for `O=C(CN1C(=O)C(c2ccc(F)cc2)=NC12CCCCCC2)Nc1ccc(F)c(Cl)c1` here?
A: active: 40%

Q: With `CC(=O)Nc1ccc(S(=O)(=O)Nc2cc(C)nc(C)n2)cc1` as the molecule, how does the survival read?
A: inactive: 98%

Q: `COc1ccccc1NC(=O)Cn1c(=O)n(Cc2ccco2)c(=O)c2oc3ccccc3c21` was tested. Which survival did it give?
A: inactive: 67%

Q: How did the survival turn out when `Cc1ccc2c(=O)cc(C(=O)Nc3c(C)n(C)n(-c4ccccc4)c3=O)oc2c1C` was run?
A: inactive: 73%

Q: How did the survival turn out when `CCC(=O)NC1CC(=O)N(c2ccc3c(c2)OCCO3)C1` (configuration not stated) was run?
A: inactive: 82%

Q: How did the survival turn out when `CN(C(=O)c1nc(-c2cccc(F)c2)n2c1CCCCC2)c1ccccc1F` was run?
A: inactive: 98%

Q: Which survival does the source give for `Cc1cc(C)c2c(-n3cccc3)c(C(=O)NCCc3ccc(Cl)cc3)sc2n1` here?
A: inactive: 104%

Q: `CCc1nn(CC(=O)NCCCOC)c(=O)c2cc3occc3n12` was tested. Which survival did it give?
A: inactive: 123%

Q: With `CCCN(CCC)CCCNC(=O)Cn1cnc2onc(-c3ccc(F)cc3)c2c1=O` as the molecule, how does the survival read?
A: inactive: 92%

Q: For `O=C(Cn1cnc2c(nc3n2CCCCC3)c1=O)Nc1ccc(F)cc1`, which survival is on record?
A: inactive: 86%

Q: For `CCOc1ccc(C(=O)N2CCN(c3ccccc3)CC2)cc1`, which survival is on record?
A: inactive: 78%

Q: `Cc1ccc(-c2nnc(Nc3ccc(Br)cc3)c3ccccc23)cc1S(=O)(=O)N1CCCCC1` was tested. Which survival did it give?
A: inactive: 72%

Q: Which survival does the source give for `COc1cccc(CNC(=O)CC(c2ccc(F)cc2)N2Cc3ccccc3C2=O)c1` (configuration not stated) here?
A: inactive: 83%

Q: `CCc1ccc(NC(=O)CSc2ccc3nnc(CCNS(=O)(=O)c4ccc(OC)cc4)n3n2)cc1` was tested. Which survival did it give?
A: inactive: 81%

Q: Which survival does the source give for `Cc1cc(OCCCSc2nc(-c3ccc(C(C)(C)C)cc3)nc3cc(=O)[nH]n23)ccc1Cl` here?
A: inactive: 89%

Q: Which survival does the source give for `CCc1ccc(NC(=O)C2CCN(c3cc(C)nc4c(-c5ccc(Cl)cc5)c(C)nn34)CC2)cc1` here?
A: inactive: 92%

Q: For `CC1CCCC(C)N1C(=O)c1ccccc1N` (configuration not stated), which survival is on record?
A: inactive: 83%

Q: With `Cc1nc2ccc(S(=O)(=O)CCC(=O)Nc3ccc(F)cc3C)cc2s1` as the molecule, how does the survival read?
A: inactive: 44%

Q: Which survival does the source give for `COc1cc(Cl)c(NC(=O)C2CCN(S(=O)(=O)c3c(C)noc3/C=C/c3ccccc3F)CC2)c(OC)c1` here?
A: inactive: 98%

Q: How did the survival turn out when `CC(C)c1ccc(NC(=O)CCCc2nc(-c3ccc(Cl)cc3)no2)cc1` was run?
A: inactive: 90%

Q: Which survival does the source give for `CCCOc1ccc(NC(=O)CC2C(=O)N(c3ccccc3)C(=O)N2CCC(C)C)cc1` (configuration not stated) here?
A: inactive: 87%

Q: For `COc1cc(C2c3c(-c4ccccc4O)n[nH]c3C(=O)N2Cc2ccncc2)ccc1O` (configuration not stated), which survival is on record?
A: inactive: 90%

Q: With `CCc1ccccc1NC(=O)C1CCCN(S(=O)(=O)c2cccc3nsnc23)C1` (configuration not stated) as the molecule, how does the survival read?
A: inactive: 84%

Q: How did the survival turn out when `COc1ccc(CCNC(=O)CCc2c(C)nc3c(c(C)nn3-c3ccc(C)cc3)c2C)c(OC)c1` was run?
A: inactive: 107%

Q: How did the survival turn out when `COc1ccc(Nc2cc(C)nc(-n3nc(C)cc3C)n2)cc1Cl` was run?
A: inactive: 81%

Q: Which survival does the source give for `CC(C)N(C(=O)CSc1nc2ccccc2n1CC(=O)N1C(C)CCCC1C)C(C)C` (configuration not stated) here?
A: inactive: 96%

Q: For `Cc1ccc(C2=Nc3ccccc3NC(c3ccncc3)=N2)cc1`, which survival is on record?
A: inactive: 77%

Q: How did the survival turn out when `CCOc1ccc(-c2nc3c(C#N)c[nH]n3c2NC2CCCC2)cc1` was run?
A: inactive: 61%

Q: With `CNS(=O)(=O)c1cn(CC(=O)Nc2ccc(C)cc2C)cc1S(=O)(=O)NC` as the molecule, how does the survival read?
A: inactive: 117%

Q: For `CCCC1=C(C(=O)OC)C(c2ccccc2)n2c(nc3ccccc32)N1` (configuration not stated), which survival is on record?
A: inactive: 85%

Q: How did the survival turn out when `COc1ccc(NS(=O)(=O)c2ccc(NC(=O)N3CCCC3)cc2)cc1` was run?
A: inactive: 117%

Q: Which survival does the source give for `CCOC(=O)c1cc(-c2ccc(C)cc2)nn1Cc1ccccc1` here?
A: active: -12%

Q: How did the survival turn out when `O=C1OC(c2ccccc2)=N/C1=C\C=C\c1ccco1` was run?
A: inactive: 98%

Q: For `Cc1ccc(-c2cn3c(n2)sc2cc(C(=O)NCCCc4ccccc4)ccc23)cc1`, which survival is on record?
A: inactive: 72%

Q: For `CC(C)N(C(=O)CSc1nc2ccccc2c(=O)[nH]1)C(C)C`, which survival is on record?
A: inactive: 97%

Q: For `COc1ccc(Cl)cc1NC(=O)CN(c1cc(C)cc(C)c1)S(=O)(=O)c1c(C)n[nH]c1C`, which survival is on record?
A: active: 9%

Q: How did the survival turn out when `CCc1ccc(NC(=O)c2cc3c(=O)n(Cc4cccs4)ccc3nc2C)cc1` was run?
A: inactive: 117%

Q: How did the survival turn out when `O=C(Nc1cc(F)ccc1F)C1COc2ccccc2C1` (configuration not stated) was run?
A: inactive: 69%

Q: Which survival does the source give for `COc1cc(-c2noc(C3CC(=O)N(c4ccc5c(c4)OCCO5)C3)n2)cc(OC)c1OC` (configuration not stated) here?
A: inactive: 64%

Q: `Cc1ccc(CNc2ccc(-c3nc(-c4ccco4)no3)cc2[N+](=O)[O-])cc1` was tested. Which survival did it give?
A: inactive: 53%

Q: How did the survival turn out when `COc1ccc(C(=O)Nc2ccc(-n3nncc3-c3ccc(OC)c(OC)c3)cc2)cc1` was run?
A: inactive: 80%

Q: With `Cc1ccc(S(=O)(=O)c2nc(-c3ccccc3)oc2N2CCN(c3ccccc3)CC2)cc1` as the molecule, how does the survival read?
A: inactive: 85%

Q: Which survival does the source give for `Cc1ccc(-c2cc(C(=O)O)n(Cc3ccccc3)n2)cc1` here?
A: inactive: 67%

Q: `O=C(CN(C(=O)c1csnn1)c1cccc(F)c1)NC1CCCC1` was tested. Which survival did it give?
A: inactive: 98%

Q: `Cc1nc2c(C(=O)Nc3ccc(N4CCC(O)CC4)cc3)snc2c(=O)[nH]1` was tested. Which survival did it give?
A: inactive: 106%

Q: For `COc1ccc(-c2cc(C(=O)Nc3c(Cl)cccc3Cl)no2)cc1OC`, which survival is on record?
A: inactive: 58%
